# Test results as given in the supplement of paper PMC11417369.
# The other results are listed elsewhere or left out.
# Test system: PfHDP1 homeodomain (GST-tagged)
# Assay: gcPBM binding intensity (ln(normalized median fluorescence intensity)); higher = stronger DNA binding
# Outline: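 Binding intensity values are the highest Masliner-normalised natural-log median intensity among replicate spots of either probe orientation. The binding step lasted 1 h in 1× PBS with 1% milk, 0.2 mg/ml BSA, 0.5% salmon testes DNA and 0.03% Triton X-100, using GST-tagged P. falciparum DNA-binding domains expressed in E. coli on an Agilent 4 × 180k array of primer-extended double-stranded 36-bp intergenic genomic probes plus negative controls. Alexa488 anti-GST antibody and a 488 nm scan detected bound protein.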
row,Sequence,gcPBM binding intensity (ln)
1,GATGGATTTATTTAAAGTACATATTTAAAAAACTGT [XGTACX_site7567],6.18
2,TTTCTCCCATTTTTTAGTACACAAAATATATATGTA [XGTACX_site7218],6.9
3,TTTTTATTTTTAAAGGCACACACATTTTTATTTTTA [CACACA_site8624],6.39
4,AAATGAAATTTGTATACACACAAATATATTTATATA [CACACA_site6525],6.36
5,TATTTGTGCCAAAAATGAAAAAGTTTGTATAAAACC [CACACA_negctrl_site1406],6.52
6,AATAAATAAATAATATAATGAAATTATAAAATGTGG [TGCATGCA_negctrl_site385],6.31
7,AAAATTACTATATGAACACACATGATTAGATATATG [CACACA_site3083],6.31
8,TATATATATATATACACACACACCCTAAAAATATAT [CACACA_site1611],9.41
9,TGAAAGAATTAATTTTGTACATATAAAAATTTTATT [XGTACX_site8500],6.16
10,AAAAACTTTTCAAGTAGTACCATATCTACAATAGTA [XGTACX_site8927],5.86
11,AAACAAAAGATATATACACACTAAACATAAAAAAAA [CACACA_site6161],6.6
12,CCTTTATTAAATAAATGTACATATTTTTGTGTTCTT [XGTACX_site2052],6.73
13,GTTGGTAGGATGTATGGTACACGTAGTATTTTTCTT [XGTACX_site2],6.93
14,AATAAAAATAAAATTGTATATTTTAAATGAAAATAA [CACACA_negctrl_site898],6.16
15,AAACTCTCTTATATTAAACACACATATATATATGTA [CACACA_site8865],6.49
16,CCGTATATTTTATATAGTACTCATCATATATTTTTA [XGTACX_site5560],6.4
17,CAAATTGGGAAATTTTGTACATATAATAAGGATACC [XGTACX_site7728],6.76
18,GATAATGAATGATGCACACTAAAAATATTCTACAAC [CACACA_site3622],8.94
19,TTTTTAATTTTTTTTAAACACACACCGTACATTCAA [CACACA_site7925],6.99
20,CATTTTCATTTTAAGGTGCATTAATATTTATTTTAA [GTGCAC_site9437],9.69
21,TATATATATACATATTGTACATATTACATGCTATTA [XGTACX_site1184],7.48
22,TATATACTTTATAAATGTACATATAATGTATTATTT [XGTACX_site7313],6.52

row,Sequence,gcPBM binding intensity (ln)
1,CATCAAAATGCTACATGTACATATATATAATATATT [XGTACX_site5207],7.08
2,GAAATGAACAAGTGGGTGCGTATTAATTACATATTA,7
3,AATATATATAAATAAACACACACAAATATAATAAAA [CACACA_site9176],7.2
4,ATAGATAAATTTACGGGTACTAAAATGGAATATGAA [XGTACX_site8637],6.91
5,ATTCACATATTATCTTTACACACTATATATAAGTTT [CACACA_site8901],6.95
6,TATTTTACAATAACAATACACACTATAATATATATA [CACACA_site1391],6.81
7,TGTGTTCAGTATTGCACACACACAACCAAATAAAAA [CACACA_site379],10.4
8,TTAGTTATTATAATTTGTACACAAATGGTAAAGTAT [XGTACX_site2343],6.59
9,TTTGTACCGGCATTTTTTTTTTCTTTTTTTTTCCAA [XGTACX_negctrl_site323],6.19
10,TATTAAAAATGTTAAGTGCAAAAATAAAAATTGTGG [GTGCAC_site9854],8.21
11,AAAATTATATATTATAGTACATAAAATTTTGATATA [XGTACX_site994],6.27
12,TGTTAAAGAGAAAGTACTACACATATTATGTGTTTT [XGTACX_site1435],6.25
13,TTTTATAAACAGAGGGGTACGGGAAAAAAAAAAAAA [XGTACX_site1480],6.57
14,AGAAAAAAAAAACACACACACACACCGTCAATATAA [CACACA_site7895],6.81
15,TTAAAAAAAATTATTTGTACTTAAAAATTTTATATT [XGTACX_site8751],5.74
16,TATAAATTATATATTTGTACGTATATCACATATATA [XGTACX_site7053],6.31
17,TACATGAATATATAAAGAAAAAAAAAAAAACACACA [XGTACX_negctrl_site350],6.82
18,TTCTCATAATTAAATAGTACATATTTTAATAATCAC [XGTACX_site6116],6.42
19,TTTATTGAATAAAATGCACACGCATGCGTTATTTAT [CACACA_site9154],9.03
20,TATATGTTATATTTAACACACATATAAGGTACATAT [CACACA_site612],6.57
21,AATAAATAAAAATATATATATATAATATACATGTGT [TGCATGCA_negctrl_site369],6.67
22,GGATGTATTTATATGTGTATGTGTTTGGAAATATGT [XGTACX_negctrl_site99],7.02

row,Sequence,gcPBM binding intensity (ln)
1,TTTTATTTCAATCCACAAGGGATAAAATAAAGTTTT [CACACA_negctrl_site699],5.83
2,TTTTTAAAATTTTTAAAAATATTATGTTAAATATAT [CACACA_negctrl_site415],6.29
3,TATGTATGTTAGTGTGCACACATAAATATTATATAT [CACACA_site9121],11.1
4,ACATATGAAAAATATGCATGCAAATATTATTTAACA [TGCATGCA_site802],7.03
5,AAAAAAAAAAAAATCTCACACATAAAGAGATTATGA [CACACA_site4408],6.05
6,TTGAAAGAAAATAAAATAAAATAAAATAAAATAAAA [CACACA_negctrl_site859],6.29
7,ATATATATGTATTTATGTACATATTATTTTTCTTAA [XGTACX_site8169],6.25
8,AAAAAAAAAAAAAAATGTACATAAAAATGATATAAT [XGTACX_site4096],6.57
9,TATAAGAAAAATAACACACACATAAACATAAATACA [CACACA_site5536],7.08
10,TTCTAAACACATTGACAAATTAATATATTACAGCAA [GTGCAC_negctrl_site121],6.59
11,TTATAATTCTATTATCTGTTCTTTTTATATTTTTTT [CACACA_negctrl_site855],6.16
12,TTATTTTTCAATGAAAAGGATTATATATATATATAT [CACACA_negctrl_site757],9.21
13,ATTAAGTATATTTCTGCACACAAAAAAAAAAACCAA [CACACA_site9342],8.43
14,TATATATAGAAACACACACACATATATATATATATA [CACACA_site773],9.64
15,GTATATATATATAAAAGTACATGTTATGAAAAAAAA [XGTACX_site5410],6.91
16,TTTTTTCTCAAAAAAAAAACCTATGGTTATTAAGAT [XGTACX_negctrl_site534],6.11
17,TTAAGAATCTATACTAGTACATATATGTATACAAGC [XGTACX_site8025],6.46
18,TATATATATATGTGTAGTACAACAAATATGAAAAAT [XGTACX_site4059],8.82
19,TGTAGAACAAAAAATTGTACATATTTGTAAAAAAAA [XGTACX_site3850],6.43
20,ATTGTGTTAATAAAATGTACATTTTCTCTACTTTAA [XGTACX_site1199],6.76
21,ATTTATTTGTTTATTTGTTTATTTGTTTATTTGTTT [CACACA_negctrl_site1386],6.62
22,ATGAAAACCATGACGGGTACTCATTTATTATTTTAT [XGTACX_site6724],5.97

row,Sequence,gcPBM binding intensity (ln)
1,AATTTAATATAATGCACACATAAAAAAAAATTCAAA [CACACA_site2062],10.5
2,TGATGAAAATTTTTCTGTACAAAAAGTATGAAGGTA [XGTACX_site8901],7.13
3,CCTAATTTTATTAGGGTGCATTTTTAGTTAAATATA,7.68
4,ACAATATATAAAATATGTACATAATATATATAATGA [XGTACX_site8731],6.4
5,TAAGTTATATGTACTACACACGTACACAAAATAAGA [CACACA_site9237],7
6,ATCCACAAATTAACAAGTACATATATATATATATAT [XGTACX_site1267],9.38
7,AAAATAATAAAAAACTGTACGAATTAAAAATTAACA [XGTACX_site8454],6.24
8,TTGGATTTTTCCTATGAACACACGGGGTTACAATTA [CACACA_site449],6.13
9,TCCAATAATTTATAAAAAAAAAAAGGGAAAATGTAT [TGCATGCA_negctrl_site492],6.39
10,ATATATTTATTATTAACATGCAATCATTATATATAA [TGCATGCA_site404],6.4
11,TTAATATGAGAATAATGTACAAGAAAATATTACATA [XGTACX_site6609],6.3
12,GATACCTATAGACACACACACATACCTATATACATA [CACACA_site7586],7.1
13,TTTATAAATAAACACACACACATGTGAACATAAAAA [CACACA_site5110],6.76
14,ATTCATCCAATAATGTGAATTATCATGATAAACTTA [TGCATGCA_negctrl_site406],6.16
15,GAAATACATTTTAAAAAATAAGTAATTATAAAATAA [TGCATGCA_negctrl_site303],6.07
16,ATATATGTAAATGAATGTACATTATTTTATATATTA [XGTACX_site8460],6.29
17,ATTATTCTATATGAAACATGCATACATTTGTATTTT [TGCATGCA_site823],6.53
18,ATCAAAATTGTCATTACACACCTTTATTTTTAGAAT [CACACA_site1813],6.6
19,TACAACTTAATATGTACACACAAATATATATATATA [CACACA_site5138],9
20,TTTTTTTTTTTTTTTACACACTCCAATAAAAAAGAA [CACACA_site2119],6.49
21,TTTTTTTATTAATGTAGTACAATATAATGTTATATT [XGTACX_site2295],6.72
22,TAATTTATAAATATAATATTTATGTATATGATGTTT [CACACA_negctrl_site464],6.52
